Here are results for 50 compounds from PubChem BioAssay AID1645882 (National Center for Advancing Translational Sciences (NCATS), 2021).

About 120 (0.75%) of roughly 16,000 compounds were called active. Another 4% or so got no clear call; they are omitted. Calls follow the shape of the dose curve; as a rule, active = well fitted inhibition curve with a large enough effect; inconclusive = small, poorly fitted or top-dose-only effect; inactive = no such curve, though single readings can be large or run the other way. The list shows a part of the results.

UniProt O95398, sequence (O95398 whole entry, looked up): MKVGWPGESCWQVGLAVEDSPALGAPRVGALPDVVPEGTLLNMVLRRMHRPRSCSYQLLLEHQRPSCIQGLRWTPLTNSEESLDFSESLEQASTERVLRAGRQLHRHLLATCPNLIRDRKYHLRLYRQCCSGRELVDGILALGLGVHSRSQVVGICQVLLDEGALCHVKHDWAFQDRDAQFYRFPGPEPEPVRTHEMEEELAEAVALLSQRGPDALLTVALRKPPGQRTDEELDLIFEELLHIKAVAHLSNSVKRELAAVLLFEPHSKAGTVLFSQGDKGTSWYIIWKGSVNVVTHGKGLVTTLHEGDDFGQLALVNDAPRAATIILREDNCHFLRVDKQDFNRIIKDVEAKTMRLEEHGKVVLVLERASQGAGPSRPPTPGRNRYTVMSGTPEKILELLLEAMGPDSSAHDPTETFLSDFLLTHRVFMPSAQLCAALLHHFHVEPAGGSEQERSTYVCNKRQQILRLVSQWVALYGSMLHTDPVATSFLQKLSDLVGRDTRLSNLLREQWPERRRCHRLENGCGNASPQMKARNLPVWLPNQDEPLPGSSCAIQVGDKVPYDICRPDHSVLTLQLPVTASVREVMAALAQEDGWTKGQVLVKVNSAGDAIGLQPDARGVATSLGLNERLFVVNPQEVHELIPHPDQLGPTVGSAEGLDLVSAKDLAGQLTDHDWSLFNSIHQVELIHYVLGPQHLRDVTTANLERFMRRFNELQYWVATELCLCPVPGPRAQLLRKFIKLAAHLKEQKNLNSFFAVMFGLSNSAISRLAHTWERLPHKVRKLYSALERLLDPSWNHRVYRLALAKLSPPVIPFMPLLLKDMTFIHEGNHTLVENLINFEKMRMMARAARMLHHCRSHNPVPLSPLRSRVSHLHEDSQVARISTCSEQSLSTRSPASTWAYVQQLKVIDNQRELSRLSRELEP

The test deals with Rap guanine nucleotide exchange factor 3 (Homo sapiens) (UniProt O95398). The experiment in a line: Validation qHTS for antagonist of cAMP-regulated guanine nucleotide exchange factor 3 (EPAC1).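 Also: plate controls were DMSO for no effect and ATA control for full effect; nearly all actives have a fitted effect of over 75% in size.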 The note with it: EPAC1 Rap1B-BODIPY-GDP exchange, fluorescence; series mostly up to 150 µM; activity change, negative = inhibition: at the top concentration. The essentials:
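Nucleotide exchange followed as fluorescence loss when BODIPY-GDP leaves Rap1B (480 nm excitation, 540 nm emission), read at 5 min intervals over 30 min. Reaction: 100 nM EPAC1, 250 nM RAP1B-BODIPY-GDP, 50 uM GDP; ATA and DMSO define normalization.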
As to `CC(=O)SC1CC2=CC(=O)CC[C@@]2(C)C2CC[C@@]3(C)[C@@H](CC[C@@]34CCC(=O)O4)C12` (stereo not given in full), the “activity change, negative = inhibition” value was inactive: -0.645%.

Take `C[C@H]1O[C@H](O[C@H]2[C@H](O)[C@@H](O)[C@@H](O[C@H]3[C@H](O)[C@@H](O)[C@H](O)O[C@@H]3CO)O[C@@H]2CO)[C@H](O)[C@@H](O)[C@@H]1N[C@H]1C=C(CO)[C@@H](O)[C@H](O)[C@H]1O`: the “activity change, negative = inhibition” value is inactive: 17%. Take `Cc1cc2c(cc1S(N)(=O)=O)S(=O)(=O)CCC2`: the “activity change, negative = inhibition” value is inactive: 7.15% [at 75.8 µM]. On to `O=S1(=O)[C@H]2C[C@@H]3C=C[C@@]2(CN1Cc1cccc(Cl)c1)O3`, for which the “activity change, negative = inhibition” value is inactive: 5.85%. Take `COc1ccc(C(=O)N2CCC[C@@]3(CCN(c4cccc(-c5ccccc5)c4)C3)C2)cc1`: the “activity change, negative = inhibition” value is inactive: -4.49%. Regarding `CSc1nc(C(=O)NCc2nc(-c3cccc(NC(=O)c4ccccn4)c3)oc2C)cs1`, the “activity change, negative = inhibition” value was inactive: 2.23%. Then `CN(C)c1ccc(/C=C2\C(=O)/C(=C\c3ccc(N(C)C)cc3)c3ccccc32)cc1`, with inactive: -17.1%. Consider `COc1ccccc1CNc1ccnc(-c2c(C)noc2C)n1`, for which the “activity change, negative = inhibition” value was inactive: 4.36%. Then `O=C(NCCN1Cc2ccccc2OC(c2ccsc2)C1)c1ccc2[nH]ccc2c1` (stereo not given), with inactive: 5.76%; and `CCCCCc1ccc(-c2cn(CC3CCCCC3)nn2)cc1`, with inactive: 23.4%; and `Cc1cc(-c2ccnc(-n3ncc(C(=O)N4CCCCC4c4cccnc4)c3C3CC3)n2)c(C)s1` (stereo not given), with inactive: 6.63%. Take `COc1ccc(-c2nc3cnc(Nc4cccc(OC)c4)nc3n(C[C@H]3CCCO3)c2=O)cc1`: the “activity change, negative = inhibition” value is inactive: 12.5%. Turning to `CCNc1ncc2nc(-c3cn(C)c4ccccc34)c(=O)n(Cc3cccc(OC)c3)c2n1`, the “activity change, negative = inhibition” value was inactive: 17.1%. Then `Cc1ncc2c(c1CNC(=O)/C=C/c1cccs1)CCN(C(=O)c1ccc3c(c1)OCCO3)C2`, with inactive: 6.54%. `CCN1CCCC1CNC(=O)c1cnn(-c2nccc(-c3cccs3)n2)c1C1CC1` (stereo not given): the “activity change, negative = inhibition” value was inactive: 10.6%. Turning to `O=c1c(-c2ccc(F)cc2)nc2cncnc2n1Cc1ccccc1`, the “activity change, negative = inhibition” value was inactive: -12.8%. Then `N/C(=N\N=C\c1ccc(Cl)cc1)N/N=C/c1ccc(Cl)cc1`, with inactive: 9.26%.

As for `COc1ccc(NC(=O)N2CC[C@@]3(CCCN(C(=O)c4csnn4)C3)C2)cc1`, the “activity change, negative = inhibition” value is inactive: 17.3%. In the case of `Cc1cnc(CNc2ncncc2-c2ccccc2C(F)(F)F)cn1`, the “activity change, negative = inhibition” value was inactive: 35.7%. `COc1c(-c2coc3cc4c(cc3c2=O)CC(OC(C)=O)C(C)(C)O4)ccc2c1C=CC(C)(C)O2` (stereo not given): the “activity change, negative = inhibition” value was inactive: 14.3%.

Take `Cc1ncc2c(c1CNC(=O)c1ccc3c(c1)OCO3)CCN(C(=O)c1ccoc1)C2`: the “activity change, negative = inhibition” value is inactive: 19.3%. Regarding `NC(=O)c1cc[n+](CC2=C(C(=O)O)N3C(=O)[C@@H](NC(=O)[C@@H](c4ccccc4)S(=O)(=O)[O-])[C@H]3SC2)cc1`, the “activity change, negative = inhibition” value was inactive: 1.47% [at 75.8 µM]. Then `CC(C)c1ccc2oc3nc(N)c(C(=O)O)cc3c(=O)c2c1`, with inactive: 20.1%.

For `O=C(O)/C(=C/c1c(C(=O)O)[nH]c2cc(Cl)cc(Cl)c12)c1ccccc1`, the “activity change, negative = inhibition” value is inactive: 29.6% [at 75.8 µM].

Turning to `COc1ccccc1Oc1coc2cc(O)ccc2c1=O`, the “activity change, negative = inhibition” value was inactive: -8.2%. As to `CN(C)c1ccc(CN2CCOc3ccc(CN4CCC(O)(c5cccnc5)CC4)cc3C2)cc1`, the “activity change, negative = inhibition” value was inactive: 5.84%. Consider `CCn1nc(C)cc1C(=O)NCC1Cc2cccc(-c3cccnc3)c2O1` (stereo not given), for which the “activity change, negative = inhibition” value is inactive: 2.62%. Take `CCC1(C2CCN(Cc3cccnc3)CC2)NC(=O)N(CC2COc3ccccc3O2)C1=O` (stereo not given): the “activity change, negative = inhibition” value is inactive: 9.36%.

Consider `C[N+](C)(C)CCCCCCCCCC[N+](C)(C)C`, for which the activity change, negative = inhibition result was “inactive”. The same measure for `[O-][N+]12CCCc3cccc(c31)CCC2`: inactive: 24.1%; for `C[C@@](N)(C(=O)O)c1ccc(C(=O)O)cc1`: “inactive”. In the case of `COc1cc2nc(N(C)CCCNC(=O)C3CCCO3)nc(N)c2cc1OC` (stereo not given), the activity change, negative = inhibition entry was “inactive”.

Turning to `c1ccc(Nc2nc(-c3ccoc3)nc3ccccc23)cc1`, the “activity change, negative = inhibition” value is inactive: 0.495%. As for `CCN(CC)c1ccc(C(=C2C=CC(=[N+](CC)CC)C=C2)c2ccccc2)cc1`, the “activity change, negative = inhibition” value is inactive: 18.2%.

With `Oc1ccc2ccccc2c1SSc1c(O)ccc2ccccc12`, the “activity change, negative = inhibition” value is inactive: -4.81% [at 75.8 µM]. With `CCOC(=O)N1CCN(Cc2ccc3c(c2)CN(C(=O)c2ccc4ncccc4c2)CCO3)CC1`, the “activity change, negative = inhibition” value was inactive: 9.4%. Then `Clc1ccc(Cn2c(CN3CCCC3)nc3ccccc32)cc1`, with “inactive”; and `COc1cc(CN2CCC3(CC2)c2ccccc2[C@@H](NC(=O)c2ccccc2OC)[C@@H]3O)ccc1F`, with inactive: 0.285%.

`COc1ccccc1-c1cncnc1NCCc1cnc[nH]1`: the “activity change, negative = inhibition” value was inactive: -13.3%. `O=C(O)/C=C/c1ccc(O)c(O)c1`: the activity change, negative = inhibition result is “inactive”. On to `Cc1cc(CNC(=O)c2cnn(-c3nccc(-c4ccc5c(c4)OCO5)n3)c2C2CC2)on1`, for which the “activity change, negative = inhibition” value is inactive: 18.3%. In the case of `NC(N)=Nc1ccc(Cl)cc1`, the “activity change, negative = inhibition” value is inactive: 11.7%. For `CC1c2ccccc2CN1NC(=O)c1ccc(Cl)c(S(N)(=O)=O)c1` (stereo not given), the “activity change, negative = inhibition” value was inactive: 19.4%. Then `[N-]=[N+]=NCC1OC(n2cnc3c(=O)[nH]c(N)nc32)C(O)C1O` (stereo not given), with inactive: 8.36%. As to `COCCNc1ncnc2ccc(-c3ccccc3CN(C)C)cc12`, the “activity change, negative = inhibition” value was inactive: 19.2%. Take `O=C(c1ccncc1)N1CCC2(CCCN(Cc3ccncc3)C2)CC1`: the “activity change, negative = inhibition” value was inactive: 5.71%. Regarding `CCCCCCCCCCCCCCCC(=O)OC[C@@H](NC(=O)C(Cl)Cl)[C@H](O)c1ccc([N+](=O)[O-])cc1`, the “activity change, negative = inhibition” value is inactive: 18%. Take `CN(CCO)C(=O)c1cn(C2CCN(Cc3ccc(C(F)(F)F)cc3)CC2)nn1`: the “activity change, negative = inhibition” value is inactive: 2.05%. In the case of `N#CCCn1c(=O)c(-c2cccc(C#N)c2)nc2cnc(Oc3cccc(Cl)c3)nc21`, the “activity change, negative = inhibition” value was inactive: -2.41%.

As to `OC1(c2cccnc2)CCN(Cc2ccc3c(c2)CN(Cc2ccsc2)CCO3)CC1`, the “activity change, negative = inhibition” value was inactive: 5.95%.
